# Measurements taken from PubChem BioAssay AID1347073 (National Center for Advancing Translational Sciences (NCATS), 2019).
# In all, about 45,000 compounds went through this assay and about 200 (0.44%) were called active. Another 7% or so got no clear call; they are omitted. The call rests on the fitted dose curve; in most records, active means well fitted activation curve with a large enough effect; inconclusive means small, poorly fitted or top-dose-only effect; inactive means no such curve, though single readings can be large or run the other way. Some of the results follow.
# Experiment: qHTS of TDP-43 Inhibitors: NCGC Sytravon Library Screen; further: nearly all actives have a fitted effect of over 55% in size; on growth rescue (activation): 0% is about no effect
# Settings: yeast TDP-43 toxicity rescue, BacTiter-Glo growth, 24 h; series mostly up to 46.1 µM; growth rescue (activation): at the top concentration
# Summary of the method: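 TDP-43-expressing yeast, pregrown in raffinose, seeded at OD600 0.02 in galactose medium with compound for 24 hr at 30 deg C. Growth read by BacTiter-Glo luminescence, so rescue of toxicity appears as activation.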
# Potency means the concentration at half of the fitted maximal effect.
SMILES,growth rescue (activation),Potency
COc1ccc(C(=S)N2CCOCC2)cc1OC(=O)c1ccc([N+](=O)[O-])cc1,inactive: 21.6%,
COc1ccc(-c2cc3nc(C)c(CCC(=O)N4CCN(c5ccccn5)CC4)c(C)n3n2)c(OC)c1,inactive: -19.1%,
COc1ccc(/C=C/C(=O)O)cc1Cl,,active: 11.2 µM
Cc1cc(C)c(N(CC(=O)NC(C)(C)C)C(=O)CNC(=O)c2cccs2)c(C)c1,inactive: -5.18%,
COc1ccc(/C=C/C(=O)Nc2ccc(-c3nnc4n3CCCCC4)cc2)c(OC)c1,inactive: -0.949%,
CCCCc1c(O)nc(SCC(=O)N2CCCCCC2)[nH]c1=O,inactive: -9.75%,
CNc1oc(-c2cccc3ccccc23)nc1C#N,inactive: 2.05%,
Cn1c(=O)c(C(=O)CN2CCCCC2)c(N)n(Cc2ccccc2)c1=O,inactive: 2.83%,
COC(=O)Nc1ccc(S(=O)(=O)N2CCC(C(=O)N3CCCC(C)C3)CC2)cc1 (stereo not drawn),inactive: 6.84%,
Cc1nc(C(F)(F)F)ccc1C(=O)N1CCC1(C)C(=O)Nc1ccc2c(c1)OCO2 (stereo not drawn),inactive: 1.21%,
O=C(Cn1cnc([N+](=O)[O-])n1)NCCc1ccccc1,inactive: -6.78%,
O=C(CCc1nc2ccccc2c(=O)[nH]1)NCc1ccccn1,inactive: -5%,
O=C(Nc1ccc2nc3n(c(=O)c2c1)CCCCC3)c1c(F)ccc([N+](=O)[O-])c1F,inactive: -17%,
O=C(CSc1nnc(COc2ccccc2)o1)N1CCCC1,inactive: 13.4%,
NC(Cc1ccccc1)c1csc(Nc2ccc(C(=O)c3ccccc3)cc2)n1 (stereo not drawn),inactive: 7.33%,
COc1ccc(CCC(=O)NNC(=O)c2cc(Cl)ccc2OC)cc1,inactive: 30.3%,
CC(C)CN(C(=O)CCNC(=O)c1ccc([N+](=O)[O-])cc1)C1CCS(=O)(=O)C1 (stereo not drawn),inactive: 3.78%,
CCCn1nc(C(=O)OCn2nnc3ccccc3c2=O)c2ccccc2c1=O,inactive: 7.17%,
CN(C)CCC#CC(O)(c1ccccc1)c1ccccc1,inactive: -8.47%,
Cc1[nH]c(=O)nc(SCc2cccc(Cl)c2)c1C#N,inactive: 12.5%,
Cc1c(NC(=O)CSCc2c(F)cccc2Cl)c(=O)n(-c2ccccc2)n1C,inactive: 12.4%,
COc1cc(CCC(=O)NCc2ccc3c(c2)OCO3)cc(OC)c1OC,inactive: 6.2%,
Cc1ccc2nc(Cl)c(/C=N/NC(=O)CN3CCOCC3)cc2c1,inactive: 15.6%,
O=C(CSc1nc(-c2ccccc2)cs1)Nc1ccccc1[N+](=O)[O-],inactive: 30.8%,
N=c1sccn1CC(=O)Nc1ccc(Cl)cc1[N+](=O)[O-],inactive: -5.28%,
C=C(C)Cn1c(N)cc(=O)nc1SCC(=O)Nc1cccc(C(F)(F)F)c1,inactive: -0.76%,
O=C(COC(=O)CCC(=O)c1cccs1)NCCc1ccccc1,inactive: 13.3%,

SMILES,growth rescue (activation),Potency
COc1cc(NC(=O)CS(=O)(=O)c2ccccc2)cc(OC)c1OC,inactive: -11.6%,
COCCc1ncc(CN2CCC(C(=O)Nc3ccc(-n4cccn4)cc3)CC2)cn1,inactive: 11%,
Cc1c(CNC2CCC(C)CC2)c(C(=O)O)c(C)n1Cc1ccccc1 (stereo not drawn),inactive: 0.664%,
CCc1nc2ccccc2[nH]c1=O,inactive: 15.8%,
O=C(O)c1ccc(COc2ccccc2[N+](=O)[O-])o1,inactive: 1.86%,
Cn1c(=O)c2cc(NC(=O)NCc3ccccc3)ccc2n1C/C=C/c1ccccc1,inactive: 12.2%,
CCCCc1nc2ccccc2c(=O)n1NC(=O)c1c(O)c2ccccc2n(C)c1=O,inactive: 12.3%,
Cc1nn2c(Nc3ccccc3)c3c(nc2c1-c1ccccc1)CCC3,inactive: 30.7%,
CN(C)CC(C)(C)CNS(=O)(=O)c1cccc2nsnc12,inactive: 3.8%,
Cc1cc(SCC(=O)NN=C2CCN(C(C)C)CC2)c(C)cc1Br,inactive: 20.8%,
COc1ccc(C(=O)CN2CCN(c3ncccn3)CC2)cc1,inactive: -14.8%,
CCCN(CC(=O)Nc1ccccc1OC)C(=O)c1ccncc1,inactive: -13.8%,
O=C(NCC(=O)N(c1ccccc1)C(C(=O)NC1CCCC1)c1ccncc1)c1cccs1 (stereo not drawn),inactive: -13.7%,
O=C1NCC(=O)N2C(c3ccccc3)c3[nH]c4ccccc4c3C[C@@H]12 (stereo partly drawn),inactive: -2.29%,
CC(C)c1ccc2oc(=O)cc(CN3CCCCC3)c2c1,inactive: -3.61%,
CCCCCCn1nc(C(=O)OCC(=O)c2c(N)n(C)c(=O)n(C)c2=O)c2ccccc2c1=O,inactive: 6.79%,
CCOC(=O)c1ccccc1NC(=O)C1CC(=O)N(C2CCCC2)C1 (stereo not drawn),inactive: -5%,
Cc1ccc(S(=O)(=O)N[C@H](C(=O)Oc2ccc3c(C(F)(F)F)cc(=O)oc3c2)c2ccccc2)cc1,inactive: -20.2%,
Cc1cccc(C)c1NC(=O)CNC(=O)c1cncc(Br)c1,inactive: 5.33%,
CC(CC(=O)C1C(C)C=CCC1(C)C)NNC(N)=O (stereo not drawn),inactive: -3.26%,
CCCn1nc(C(=O)OCC(=O)Nc2ccc(C(N)=O)cc2)c2ccccc2c1=O,inactive: 7.41%,
COc1ccccc1N=C1SC(C(=O)Nc2ccccc2OC)CC(=O)N1C (stereo not drawn),inactive: 9.16%,
CCn1ccnc1CN(C)C(=O)CC1C(=O)NCCN1Cc1c(F)cccc1Cl (stereo not drawn),inactive: -1.92%,
COCCn1c(SCC(=O)NNC(=O)c2ccccc2)nc2ccccc21,inactive: -9.12%,
Cc1onc(-c2ccccc2)c1C(=O)N1CCCSC1=Nc1ccccc1,inactive: -14.9%,
N#Cc1c(SCC(N)=O)nc2c(c1-c1ccncc1)CCCC2,inactive: 13.6%,
